Experimental data from PMC4336329 (PLoS ONE, 2015).
About 2,200 (0.71%) of roughly 310,000 compounds showed an effect of 50% or more. Effects have a minus sign here. Some of the results follow.

Molecular target: human ether-à-go-go-related gene (hERG) potassium channel (human, UniProt Q12809)
Assay: primary screen, population patch clamp on CHO cells stably expressing hERG

human ether-à-go-go-related gene (hERG) potassium channel, sequence (Q12809 whole entry, looked up): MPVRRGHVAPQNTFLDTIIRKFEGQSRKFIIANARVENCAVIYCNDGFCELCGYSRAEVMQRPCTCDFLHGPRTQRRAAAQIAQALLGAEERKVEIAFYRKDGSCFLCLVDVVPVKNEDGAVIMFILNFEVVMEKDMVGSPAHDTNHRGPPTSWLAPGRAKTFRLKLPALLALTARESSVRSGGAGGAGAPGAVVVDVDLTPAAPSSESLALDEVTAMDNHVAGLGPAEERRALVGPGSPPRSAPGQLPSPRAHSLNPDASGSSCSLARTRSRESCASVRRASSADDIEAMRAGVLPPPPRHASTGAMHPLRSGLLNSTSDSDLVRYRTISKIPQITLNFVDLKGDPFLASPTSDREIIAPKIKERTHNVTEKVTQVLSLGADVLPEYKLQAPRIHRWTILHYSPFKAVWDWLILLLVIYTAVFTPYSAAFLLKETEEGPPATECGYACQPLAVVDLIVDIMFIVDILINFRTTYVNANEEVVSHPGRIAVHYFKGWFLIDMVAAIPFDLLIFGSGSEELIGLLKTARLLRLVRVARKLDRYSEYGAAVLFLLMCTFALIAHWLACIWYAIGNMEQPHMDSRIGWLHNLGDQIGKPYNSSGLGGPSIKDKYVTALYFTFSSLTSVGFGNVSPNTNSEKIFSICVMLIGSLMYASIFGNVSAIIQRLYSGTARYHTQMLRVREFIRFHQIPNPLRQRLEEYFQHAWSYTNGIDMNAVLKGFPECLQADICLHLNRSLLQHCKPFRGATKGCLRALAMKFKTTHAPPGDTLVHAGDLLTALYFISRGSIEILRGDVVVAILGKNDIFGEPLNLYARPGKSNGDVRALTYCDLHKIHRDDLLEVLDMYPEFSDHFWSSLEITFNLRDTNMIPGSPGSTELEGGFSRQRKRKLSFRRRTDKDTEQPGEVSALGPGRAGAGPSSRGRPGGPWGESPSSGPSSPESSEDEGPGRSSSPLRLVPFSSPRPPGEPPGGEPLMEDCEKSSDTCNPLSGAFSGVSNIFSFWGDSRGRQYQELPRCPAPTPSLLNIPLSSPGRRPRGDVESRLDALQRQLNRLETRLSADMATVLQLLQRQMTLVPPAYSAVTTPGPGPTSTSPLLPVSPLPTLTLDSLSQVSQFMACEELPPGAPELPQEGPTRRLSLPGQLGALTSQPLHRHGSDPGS

SMILES	hERG current change (%, negative = inhibition) at 1uM
Cc1cc(O)cc(=O)n1Cc1ccco1	8.7%
CC(C)N(Cc1ccccc1)C(=O)CN1C(=O)NC2(CCCc3ccccc32)C1=O (stereo not shown)	2.04%
CCOC(=O)c1c(NC(=O)CSc2nc3ccc(C)cc3[nH]2)sc2c1CC(C)(C)NC2(C)C	4.67%
COc1ccc(-c2noc(CCC(=O)NCCCN3CCN(c4ccccc4F)CC3)n2)cc1	-26.8%
COc1ccc(Nc2cc(C)nc(NCc3ccccc3)n2)cc1	11.5%
COc1ccc(NC(=O)CSCC(=O)N2CCN(C(=O)c3ccco3)CC2)cc1	6.41%
COc1ccccc1Nc1ncccc1C(=O)O	5.87%
CC1=NN(C(C#N)c2ccccc2C)C(C)(C)C1 (stereo not shown)	5.75%
O=C(CSc1nc2c(c(=O)n1-c1ccc(Cl)cc1)SCC2)NCc1ccco1	1.72%
COc1ccc(OC)c(NC(=O)CCCc2ccccc2)c1	8.73%
CCN(C(=O)CN1CC=C(c2ccccc2)CC1)c1c(N)n(Cc2ccccc2)c(=O)[nH]c1=O	14.5%
COc1ccc(Cl)cc1NC(=O)CN1CCc2ccccc21	-12.6%
Cc1noc(NS(=O)(=O)c2ccc(NC(=O)Nc3ccc(Cl)c(Cl)c3)cc2)c1C	23.6%
CN1CCN(C(=O)c2ccc3c(c2)OCCO3)CC1.Cl	9.77%
Cc1nn(C)c(NC(=O)c2ccc([N+](=O)[O-])cc2)c1Cl	14.7%
Cc1nc(-c2cc(C#N)c(=O)[nH]c2C)cs1	15.5%
Cc1n[nH]c(C)c1SCC(=O)Nc1ccc(F)cc1	13.5%
O=c1c2cnn(-c3ccc(F)cc3)c2ncn1Cc1ccccc1	10.9%
CCc1ccccc1Nc1nc(N)nc(COC(=O)CCC(=O)c2ccc(F)cc2)n1	7.91%
O=C(CCN1C(=O)C2C3C=CC(C3)C2C1=O)NCC1CCCO1 (stereo not shown)	2.83%
O=C(Nc1ccc(OCc2ccccc2)cc1)c1cccc([N+](=O)[O-])c1	2.9%
O=C(NCC(=O)N1CCCC(C(F)(F)F)C1)c1ccccc1Br (stereo not shown)	12.5%

SMILES	hERG current change (%, negative = inhibition) at 1uM
C#CCOCCOCCOCCNc1nc(N2CCOCC2)nc(N2CCN(C(=O)[C@H](Cc3cc4ccccc4[nH]3)n3cc([C@@H](N)CC(C)C)nn3)CC2)n1.Cl	14.3%
Cc1ccc(C(=O)NCC(=O)OC(C)C(=O)NCCC2=CCCCC2)cc1C (stereo not shown)	19.6%
Cc1nc2nc3c(c(=O)n2[nH]1)CCC3	0.193%
N#C/C(=C/c1cn(CC(=O)O)c2ccccc12)C(=O)Nc1ccccc1	10.5%
CCOC(=O)c1cnc2cc(-c3ccc(C(C)(C)C)cc3)nn2c1N	9.35%
O=C1CN(C(=O)c2cccc(Br)c2)c2ccccc2N1	5.72%
O=C(NN1CCOCC1)c1cc(-c2ccc(Br)s2)nc2ccccc12	3.62%
CCN1C(=O)[C@H]2[C@@H](c3ccc(-c4cccc(Cl)c4)c(OC)c3)N[C@@](C)(C(=O)OC)[C@H]2C1=O.O=C(O)C(F)(F)F	7.57%
COc1ccc(C)cc1NC(=O)COC(=O)c1ccc2ccccc2n1	2.38%
CC(C)CNc1nc(Oc2ccc(=O)[nH]n2)nc(N(C)C)n1	5.55%
Cc1ccc(NC(=O)C2CC(=O)N(C(C)C)C2)cc1Cl (stereo not shown)	45.5%
CC(C)(C)NC(=O)Cn1cc(C(=O)c2ccccc2F)c2ccccc21	16.6%
CC(C)CCn1c(=O)c(C(=O)N/N=C/c2cccc(F)c2)c(O)c2ccccc21	21.3%
CCOC(=O)/C(C#N)=C/c1cn(CCC(=O)O)nc1-c1cccc(Cl)c1	13%
O=C(COC(=O)c1cc(S(=O)(=O)N2CCOCC2)ccc1Cl)Nc1ccc2c(c1)OCO2	9.05%
O=C(/C=C/c1ccco1)Nc1nnc(-c2ccco2)s1	3.97%
CCN1CCc2c(sc(NC(=O)c3ccc(C(=O)c4ccccc4)cc3)c2C(N)=O)C1.Cl	-7.72%
Cc1cc(C)c[n+](C(C)C(=O)c2ccc(Cl)cc2)c1.[Br-] (stereo not shown)	18.2%
COc1ccc(NC(=O)C(CCCCNC(=O)OC(C)(C)C)NC(=O)OCc2ccccc2)cc1 (stereo not shown)	13.5%
CCOc1cccc(C2NCc3ccccc3-n3cccc32)c1O.Cl (stereo not shown)	-3.06%
O=C(O)/C=C/C(=O)NCc1csc2ccccc12	7.98%
N#C/C(=C/Nc1ccccc1C(=O)O)C(N)=O	8.71%

SMILES	hERG current change (%, negative = inhibition) at 1uM
Clc1ccc(-c2nc3cnccn3c2Nc2ccc3c(c2)OCO3)cc1	17.1%
Cc1ccc(NC2=CC(=O)CC(C)(C)C2)cc1Cl	13.1%
CC(Cc1cnccn1)NCc1c(C(=O)N2CCCCCCC2)nc2ccc(Cl)cn12 (stereo not shown)	0.336%
CSc1nc(NC(C)(C)C)nc(Oc2ccc(=O)[nH]n2)n1	10.9%
Cc1ccc(NC(=O)c2ccc3c(c2)C(=O)N(c2cc(C)ccc2C)C3=O)nc1	17.4%
CC1(c2ccccc2)CC2CC(c3ccccc3)N1O2 (stereo not shown)	10.1%
Cc1sc(-c2ccncc2)nc1OC(=O)c1ccc(Cl)cc1	-3.63%
O=C1N(Cc2cccc(Cl)c2)C[C@@H]2C[C@@H](c3cccn3-c3ccccn3)N3CCC[C@@]123	-56.9%
CC(C)CCNc1ncnc2c1cnn2Cc1ccccc1Cl	5.77%
O=C(NCCOCCOCCNC(=O)c1cccnc1)c1cccnc1	13%
CCCc1cc(=O)oc2cc(OCC(=O)N3CCc4ccccc43)ccc12	0.72%
CCC(=O)N/N=C(\C)CC(=O)Nc1ccc(F)cc1	4.11%
COc1cc2c(cc1OC)C(c1cccs1)N(C(=O)c1cccc(S(=O)(=O)N(C)C)c1)CC2 (stereo not shown)	-37.6%
CCOc1ccc(CN2CCNC(=O)C2CC(=O)NC2CCOCC2)cc1 (stereo not shown)	-14.1%
Cc1sc(NC(=O)c2ccco2)c(C(c2cccnc2)N2CCN(c3ccc(F)cc3)CC2)c1C (stereo not shown)	9.27%
Cc1nnsc1Sc1ccccc1C(=O)O	11%
CC1=CC(=O)C=CC1(C)C(Cl)Cl (stereo not shown)	-1.14%
COc1cccc(NC(=O)N2CCOCC2)c1	-13.1%
COc1ccc(-n2nc(C(=O)Nc3ccc4c(c3)OCO4)c3ccccc3c2=O)c(OC)c1	10.9%
COC(=O)/C(C#N)=C/c1c(N2CCCCCC2)nc2ccccn2c1=O	11.1%
O=C(O)C(=O)O.c1ccc(CCN(Cc2ccccc2)C2CCN(C3CCCC3)CC2)cc1	-68.9%
CCOc1ccc(OCc2cccc(C(=O)N(CC)CC)c2)cc1	-26.9%

SMILES	hERG current change (%, negative = inhibition) at 1uM
Cc1cnc(C(=O)OCC(=O)Nc2ccc(C)c(S(=O)(=O)N3CCCCC3)c2)cn1	12.2%
O=C(NCc1ccco1)c1ccc(Cn2cc([N+](=O)[O-])cn2)o1	8.44%
O=C(CSc1nnc(-c2ccccc2)n1Cc1ccccc1)N1CCOCC1	4.4%
CC(=O)Oc1ccc(S(=O)(=O)c2ccc(OC(C)=O)cc2)cc1	14.1%
COc1ccc2[nH]cc(C(=O)CN(C)CCc3ccc(OC)c(OC)c3)c2c1	-60.6%
Cc1ccc(NC(=O)c2cccc(-n3cnnn3)c2)cc1Cl	-5.97%
O=C1NCCC/C1=N/Nc1ccc(F)cc1	9.32%
Cc1ccc(NC(=O)CNC(c2ccccc2)c2ccccc2)c(F)c1	6.13%
Cc1ccc(S(=O)(=O)N(CC(=O)NCCSCc2ccco2)c2cc(C)ccc2C)cc1	6.33%
Cc1nc(-c2cccc(NS(=O)(=O)c3ccc4ccccc4c3)c2)cs1	5.6%
Cc1ccn(CCC(=O)Nc2ccc3c(c2)OCO3)n1	14.8%
CCCn1c(-c2cccs2)nc2c1c(=O)[nH]c(=O)n2Cc1ccccc1	7.22%
Nc1cc(N)nc(SCC(=O)c2ccccc2)n1	12.4%
CSCCC(NC(=O)CCC(=O)OC1CC[C@H]2[C@@H]3CC[C@H]4CC(=O)CC[C@]4(C)[C@H]3CC[C@]12C)C(=O)O (stereo partly shown)	16.1%
C=CCNC(=O)CN(CCc1ccccc1)S(=O)(=O)c1ccccc1	6.87%
CCOc1cc(-c2c(C#N)c(N)nc3c2CCCC3C)ccc1O (stereo not shown)	-3.33%
CC(C(=O)N1CCCCC1)n1sc2ccccc2c1=O (stereo not shown)	8.07%
O=C(NC(=S)Nc1ccc(CN2CCOCC2)cc1)c1ccco1	11.2%
CCN(CC)c1ccc(/C=N/NC(=O)Cc2nnc(NC(=O)Nc3ccccc3)s2)cc1	11.1%
CCOc1ccc(NC(=O)Cc2ccc(S(=O)(=O)N3CCOCC3)s2)cc1OCC	6.72%
Cc1cc(C)cc(NC(=O)C2C3C=CC(O3)C2C(=O)O)c1 (stereo not shown)	23.9%
CCOC(=O)c1cnc(SCC#N)nc1N	18.1%
